Laboratory results: PubChem BioAssay AID493208 (National Center for Advancing Translational Sciences (NCATS), 2011)
The whole screen tested about 44,000 compounds, of which about 340 (0.77%) were called active. Another 5% or so got no clear call; they are omitted. Calls follow the shape of the dose curve; as a rule, active = well fitted inhibition curve with a large enough effect; inconclusive = small, poorly fitted or top-dose-only effect; inactive = flat fitted curve, though single readings scatter. The list shows a part of the results.

Test: Acumen qHTS Assay for Inhibitors of the mTORC1 Signaling Pathway in MEF (Tsc2-/-, p53-/-) Cells: Sytravon;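 also: plate controls were DMSO for no effect and rapamycin for full effect; nearly all actives have a fitted effect of over 50% in size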
Conditions: phospho-rpS6 immunofluorescence/PI, 24 h; series mostly up to 38.3 µM; activity change, negative = inhibition: at the top concentration
How it was run: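 Read-out: phospho-S6 Alexa-488 intensity over PI intensity per well, scored as % active cells using thresholds from rapamycin (7.5 nM) and DMSO controls. Tsc2-/-, p53-/- MEFs exposed to compound for 24 h; PI cell count recorded as viability.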

**Q.** For `O=C(O)c1cccc(-n2cnc3cccnc32)c1`, which “activity change, negative = inhibition” value is on record?
**A.** inactive: -0.253%

**Q.** With `CCC(C(=O)NC1CCCCC1)n1c(SCc2cccc(C)c2)nc2ccncc21` (configuration not stated) as the compound, how does the “activity change, negative = inhibition” value read?
**A.** inactive: -6.85%

**Q.** For `Cn1c(C(=O)N2CCC(C(=O)NCCc3ccccc3)CC2)cc2sccc21`, which “activity change, negative = inhibition” value is on record?
**A.** inactive: -1.71%

**Q.** With `CCN(CC)CCNC(=O)c1cn(CC)c2ccc(S(=O)(=O)N(C)C3CCCCC3)cc2c1=O` as the compound, how does the “activity change, negative = inhibition” value read?
**A.** inactive: -6.53%

**Q.** Which “activity change, negative = inhibition” value does the source give for `COCc1c(Br)c(C)nc2sc3c(=O)n(-c4cccc(Br)c4)nnc3c12` here?
**A.** inactive: 0.0534%

**Q.** For `N#Cc1ccccc1CSc1nnc2ccc3ccccc3n12`, which “activity change, negative = inhibition” value is on record?
**A.** inactive: -0.7%

**Q.** For `CC(NC(=O)c1ccco1)c1nc(-c2ccccc2)no1` (configuration not stated), which “activity change, negative = inhibition” value is on record?
**A.** inactive: 0.356%

**Q.** For `Cc1cc(=O)n(CC(=O)NC(C)c2ccccc2)c2c1c(C)nn2-c1cccc(F)c1` (configuration not stated), which “activity change, negative = inhibition” value is on record?
**A.** inactive: -5.77%

**Q.** Which “activity change, negative = inhibition” value does the source give for `CCN1C(=O)c2ccccc2S(=O)(=O)c2ccc(C(=O)NCc3ccc(OC)cc3)cc21` here?
**A.** inactive: 2.86%

**Q.** For `CCc1ccccc1NC(=O)CSc1nnc(-c2ccccc2)c(-c2ccccc2)n1`, which “activity change, negative = inhibition” value is on record?
**A.** inactive: 3.88%

**Q.** For `O=C(CN(c1ccc(Cl)c(C(F)(F)F)c1)S(=O)(=O)c1ccccc1)Nc1cccnc1`, which “activity change, negative = inhibition” value is on record?
**A.** inactive: 2%

**Q.** Which “activity change, negative = inhibition” value does the source give for `COc1cc(OC)cc(-c2cc3nc(C)c(CCC(=O)Nc4ccccc4OC)c(C)n3n2)c1` here?
**A.** inactive: -0.351%

**Q.** For `COCCNC(=O)Cn1c(=O)c2cccn2c2ccc(F)cc21`, which “activity change, negative = inhibition” value is on record?
**A.** inactive: 7.42%

**Q.** For `CCc1nnc(NC(=O)c2nc(SC)ncc2Cl)s1`, which “activity change, negative = inhibition” value is on record?
**A.** inactive: -0.436%

**Q.** With `NC(=O)CSc1nc2c(oc3ccccc32)c(=O)n1Cc1ccccc1` as the compound, how does the “activity change, negative = inhibition” value read?
**A.** inactive: 0.347%

**Q.** With `CCSc1oc(-c2cccs2)nc1S(=O)(=O)c1ccc(Br)cc1` as the compound, how does the “activity change, negative = inhibition” value read?
**A.** inactive: 2.26%

**Q.** With `Cc1ccccc1C(=O)Nc1c(C(=O)Nc2cccc(F)c2)oc2ccccc12` as the compound, how does the “activity change, negative = inhibition” value read?
**A.** inactive: 0.633%

**Q.** For `CCOC(=O)c1c(-c2ccccc2)oc2ccc(N(C(C)=O)S(=O)(=O)c3ccccc3)cc12`, which “activity change, negative = inhibition” value is on record?
**A.** inactive: 5.87%

**Q.** Which “activity change, negative = inhibition” value does the source give for `O=C(NCc1ccc2c(c1)OCO2)c1ccc2c(c1)N(Cc1ccccc1F)C(=O)c1ccccc1S2=O` (configuration not stated) here?
**A.** inactive: 1.88%

**Q.** Which “activity change, negative = inhibition” value does the source give for `O=S(=O)(NCC(c1ccco1)N1CCN(c2ccccc2)CC1)c1ccccc1` (configuration not stated) here?
**A.** inactive: -10.5%

**Q.** Which “activity change, negative = inhibition” value does the source give for `Cc1cccn2c3c(c(=O)nc12)C(c1ccc(F)cc1)CC(=O)N3` (configuration not stated) here?
**A.** inactive: -16.4%

**Q.** For `CCCN(C(=O)c1c(C)oc2ncnc(N3CCOCC3)c12)c1ccc(Cl)c(Cl)c1`, which “activity change, negative = inhibition” value is on record?
**A.** inactive: 7.85%

**Q.** For `CCOc1ccc(Cn2nnc(C(=O)Nc3ccc(Cl)cc3)c2N)cc1`, which “activity change, negative = inhibition” value is on record?
**A.** inactive: 0.673%

**Q.** For `CN(C1CCCCC1)S(=O)(=O)c1ccc2c(c1)c(=O)c(C(=O)NCc1ccc(F)cc1)cn2C`, which “activity change, negative = inhibition” value is on record?
**A.** inactive: -8.09%

**Q.** With `COc1ccccc1CNC(=O)C1CCN(C(=O)c2sccc2-n2cccc2)CC1` as the compound, how does the “activity change, negative = inhibition” value read?
**A.** inactive: -19%

**Q.** With `CCn1ccc2c(OCC(=O)Nc3ccc(C(C)=O)cc3)cccc2c1=O` as the compound, how does the “activity change, negative = inhibition” value read?
**A.** inactive: 2.57%

**Q.** Which “activity change, negative = inhibition” value does the source give for `COc1ccccc1CNC(=O)c1cc2c(-c3ccc(Cl)cc3)nn(C)c2s1` here?
**A.** inactive: -3.66%

**Q.** With `Cc1ccc(S(=O)(=O)Nc2ccc3[nH]c(=O)sc3c2)cc1C` as the compound, how does the “activity change, negative = inhibition” value read?
**A.** inactive: 2.41%

**Q.** With `O=C(c1ccc2c(c1)N(Cc1ccc(Cl)cc1)C(=O)c1ccccc1S2(=O)=O)N1CCC(Cc2ccccc2)CC1` as the compound, how does the “activity change, negative = inhibition” value read?
**A.** inactive: -0.928%

**Q.** Which “activity change, negative = inhibition” value does the source give for `O=C(c1ccc2c(c1)N(Cc1ccc(F)cc1)C(=O)c1ccccc1S2(=O)=O)N1CCCCCC1` here?
**A.** inactive: 0.226%

**Q.** For `CCOc1ccc(NC(=O)CSC2=Nc3ccccc3C3=NC(CC(=O)NCc4ccccc4OC)C(=O)N23)cc1` (configuration not stated), which “activity change, negative = inhibition” value is on record?
**A.** inactive: -0.391%

**Q.** Which “activity change, negative = inhibition” value does the source give for `Cc1ccc(N2CC(NC(=O)c3ccco3)CC2=O)cc1` (configuration not stated) here?
**A.** inactive: -3.72%

**Q.** Which “activity change, negative = inhibition” value does the source give for `COc1cccc(-n2c(=O)c3cc(OC)c(OC)cc3n(CC(=O)Nc3ccccc3)c2=O)c1` here?
**A.** inactive: -5.78%

**Q.** Which “activity change, negative = inhibition” value does the source give for `O=C(Nc1cc2c(cc1C(=O)c1ccc(Br)cc1)OCCO2)c1ccc(Cl)cc1` here?
**A.** inactive: 6.62%

**Q.** For `Cc1oc(-c2ccccc2F)nc1CS(=O)(=O)CC(=O)N1CCN(c2ccc(Cl)cc2)CC1`, which “activity change, negative = inhibition” value is on record?
**A.** inactive: -2.65%

**Q.** For `Cc1ccc(C)c(S(=O)(=O)c2cn(C)c3cc(F)c(F)cc3c2=O)c1`, which “activity change, negative = inhibition” value is on record?
**A.** inactive: 3.58%

**Q.** Which “activity change, negative = inhibition” value does the source give for `CCc1cccc(NC(=O)c2c(N3CCCC3=O)c3cc(C)ccc3n2C)c1` here?
**A.** inactive: -2.6%

**Q.** Which “activity change, negative = inhibition” value does the source give for `COc1ccc(CCn2c(=O)c3ccccc3n(CC(=O)Nc3cccc(C)c3)c2=O)cc1OC` here?
**A.** inactive: -2.79%

**Q.** For `CC(=O)Nc1ccccc1-c1nc2ccccc2n(CC(=O)Nc2ccc(C)c(Cl)c2)c1=O`, which “activity change, negative = inhibition” value is on record?
**A.** inactive: -20.3%

**Q.** For `Cc1ccc(S(=O)Cc2ccc(C(=O)NC3CCCCCC3)o2)cc1` (configuration not stated), which “activity change, negative = inhibition” value is on record?
**A.** inactive: -3.05%

**Q.** With `Cc1[nH]c2ccc(C(=O)Nc3ccc(F)cc3)cc2c1C` as the compound, how does the “activity change, negative = inhibition” value read?
**A.** inactive: -16.4%

**Q.** Which “activity change, negative = inhibition” value does the source give for `Cc1ccccc1CN1C(=O)c2ccccc2S(=O)c2ccc(C(=O)NCc3ccco3)cc21` (configuration not stated) here?
**A.** inactive: 0.15%

**Q.** With `CCN(C(=O)CCS(=O)(=O)c1ccc2c(c1)oc(=O)n2C)c1ccc(OC)cc1` as the compound, how does the “activity change, negative = inhibition” value read?
**A.** inactive: 6.54%

**Q.** With `Cc1ccc(NC(=O)CSc2nc3c(c(=O)[nH]2)CCC3)cc1Cl` as the compound, how does the “activity change, negative = inhibition” value read?
**A.** inactive: -14.6%

**Q.** With `CCn1c(COc2cccc(C)c2)nc2ccccc21` as the compound, how does the “activity change, negative = inhibition” value read?
**A.** inactive: -10.9%

**Q.** For `O=S(=O)(c1ccc(Br)cc1)c1nc(-c2cccs2)oc1SCc1ccc(F)cc1`, which “activity change, negative = inhibition” value is on record?
**A.** inactive: 4.49%

**Q.** Which “activity change, negative = inhibition” value does the source give for `CCS(=O)(=O)N1CCC2(CC1)OC(=O)C(C)=C2C(=O)NCc1cccc(Cl)c1` here?
**A.** inactive: -3.23%

**Q.** Which “activity change, negative = inhibition” value does the source give for `COc1cc2c(cc1NC(=O)COc1ccc(Br)cc1C)oc1ccccc12` here?
**A.** inactive: -3.5%

**Q.** Which “activity change, negative = inhibition” value does the source give for `Cc1ccc(C)c(N2CCN(C(=O)C3CCN(C(=O)c4cc5sccc5n4C)CC3)CC2)c1` here?
**A.** inactive: -1.66%

**Q.** For `Cc1ccccc1NS(=O)(=O)c1ccc2c(c1)NC(=O)CCS2`, which “activity change, negative = inhibition” value is on record?
**A.** inactive: 4.26%

**Q.** For `CC(C)CCNC(=O)CCC(=O)N1Cc2ccccc2Oc2ncccc21`, which “activity change, negative = inhibition” value is on record?
**A.** inactive: 2.52%

**Q.** For `CCn1c(SCC(=O)Nc2ccccc2)nc2c([nH]c3ccccc32)c1=O`, which “activity change, negative = inhibition” value is on record?
**A.** inactive: -6.01%

**Q.** Which “activity change, negative = inhibition” value does the source give for `COc1ccccc1C(=O)Nc1c(C(=O)N2CCN(c3ccccc3F)CC2)oc2ccccc12` here?
**A.** inactive: -4.92%

**Q.** With `Cc1cc2c(cc1S(=O)(=O)NCc1ccccc1)OCC(=O)N2` as the compound, how does the “activity change, negative = inhibition” value read?
**A.** inactive: -0.691%

**Q.** For `Cc1ccc(NC(=O)c2ccc(COc3ccccc3Cl)o2)cc1`, which “activity change, negative = inhibition” value is on record?
**A.** inactive: -7.44%

**Q.** Which “activity change, negative = inhibition” value does the source give for `O=C(c1ccccc1)c1ccc2nc(N3CCN(c4ccccc4)CC3)c3nncn3c2c1` here?
**A.** inactive: 1.21%

**Q.** With `CN(C)c1cccc(C(=O)Nc2nc3ccc(S(=O)(=O)NC(C)(C)C)cc3s2)c1` as the compound, how does the “activity change, negative = inhibition” value read?
**A.** inactive: -10.7%

**Q.** With `Cc1ccc(CNC(=O)c2ccc3c(c2)NC(=O)C(CS(=O)(=O)Cc2ccc(F)cc2)N3)cc1` (configuration not stated) as the compound, how does the “activity change, negative = inhibition” value read?
**A.** inactive: 1.46%

**Q.** For `CC(C)(C)c1ccc(C(=O)Nc2ccc(C(=O)OCc3cc(=O)n4ccsc4n3)cc2)cc1`, which “activity change, negative = inhibition” value is on record?
**A.** inactive: 13.3%

**Q.** Which “activity change, negative = inhibition” value does the source give for `CCC1CCCCN1CCCNC(=O)c1cn(CC)c2ccc(S(=O)(=O)N(C)C3CCCCC3)cc2c1=O` (configuration not stated) here?
**A.** inactive: -8.02%

**Q.** With `Cc1nc2ccc(S(=O)(=O)CCC(=O)Nc3ccc(C(C)C)cc3)cc2s1` as the compound, how does the “activity change, negative = inhibition” value read?
**A.** inactive: -5.27%

**Q.** With `COC(=O)c1sc(-c2ccccc2)cc1NC(=O)Nc1ccccc1Cl` as the compound, how does the “activity change, negative = inhibition” value read?
**A.** inactive: -6.12%
